Reference: a compilation of properties of binary mixtures (doi:10.1016/j.molliq.2017.06.029)
Some of these densities may be calculated back from excess volumes.

Assay: xn = mol fraction of the nth substance listed
Conditions: 100 kPa

OCc1ccco1 + CC(=O)[O-].CC[n+]1ccn(C)c1
mass density [kg/m3]
Conditions | 298.15 K | 303.15 K | 308.15 K | 313.15 K | 318.15 K
x2 = 0 | 1126.9 | 1122.3 | 1117.6 | 1112.9 | 1108.2
x2 = 0.0572 | 1129.3 | 1125 | 1120.6 | 1116.3 | –
x2 = 0.1058 | 1129.6 | 1125.5 | 1121.4 | 1117.3 | 1113.1
x2 = 0.1534 | 1129 | 1125 | – | 1117.1 | –
x2 = 0.2087 | 1127.8 | 1124 | 1120.1 | 1116.3 | –
x2 = 0.3068 | – | – | 1117.5 | – | 1110.2
x2 = 0.408 | 1121 | 1117.5 | 1113.9 | 1110.4 | 1106.9
x2 = 0.5063 | – | – | 1110 | 1106.6 | 1103.2
x2 = 0.5513 | 1115 | 1111.5 | 1108.2 | 1104.8 | –
x2 = 0.6031 | 1112.7 | 1109.4 | – | – | 1099.4
x2 = 0.7053 | 1108.5 | 1105.2 | – | 1098.7 | –
x2 = 0.8045 | 1104.5 | – | 1098.1 | 1095 | 1091.8
x2 = 0.8441 | 1103.1 | 1099.9 | 1096.7 | 1093.6 | 1090.4
x2 = 0.902 | 1100.9 | – | 1094.7 | 1091.5 | 1088.4

CC(=O)[O-].CC[n+]1ccn(C)c1 + OCc1ccco1
x1 = 1
Conditions | mass density [kg/m3]
298.15 K | 1097.5
303.15 K | 1094.5
308.15 K | 1091.4
313.15 K | 1088.3
318.15 K | 1085.2
